Laboratory results as given in ChEMBL document CHEMBL4888484, “Replenishing the malaria drug discovery pipeline: Screening and hit evaluation of the MMV Hit Generation Library 1 (HGL1) against asexual blood stage Plasmodium falciparum ,using a nano luciferase reporter read-out” (2022).
The campaign covered roughly 4,800 compounds. About 410 (8.5%) showed an effect of 50% or more. The list shows a part of the results.

Each compound was assayed on Plasmodium falciparum (assay: Confirmatory screen in NF54 pLDH assay, in single point, at 2uM, 72h). Conditions: timepoint 72 hour.
Format: functional, Erythrocyte

SMILES	% Inhibition [%]
Cc1cc(CS(=O)(=O)N2CCC[C@H]2c2noc(C)n2)no1	9
CCC[C@@]1(C)C(=O)NCCN1Cc1nnc(-c2ccc(Cl)cc2)n1C	-14
O=C(CC(F)(F)F)NCc1ccccn1	-21
Cc1ccccc1Nc1nnc(-c2ccccc2)c(-c2ccccc2)n1	5
CC1CCC2(C)c3[nH]c4ccccc4c3CCCN2C1=O (stereo not drawn)	-11
COc1nscc1CN(C)C(=O)c1ccc2c(c1)C(C)(C)CO2	-12
Cc1cnc(C)c(N2CCCN(c3cncc(F)c3)CC2)n1	2
C[C@@]1(C(N)=O)CCCCN1Cc1cncs1	3
Cc1cc(NC(=O)CNC2C(C)CCN(C(=O)OC(C)(C)C)C2C)n(C(C)(C)C)n1 (stereo not drawn)	-2
C[C@@H](C(=O)Nc1nc(-c2ccccn2)cs1)n1nc2c(cc1=O)CCC2	17
CC(C)[C@H](Nc1ccc2nccnc2n1)c1nnc2n1CCC2	3
Cc1c(NC(=O)[C@H]2CCc3nnc(C4CCOCC4)n3CC2)cccc1C(F)(F)F	-13
CC1=CN(O)[C@H](c2ccc(O)cc2)N=N1	-19
Cc1noc([C@@H](C)NC(=O)CC(C)C)c1C(=O)O	7
Cc1cn2c(S(=O)(=O)NCc3ccco3)c(C(C)C)nc2s1	-6
Cc1nnc2sc(Nc3ccccc3)nn12	-1
Cc1cccc(C(=O)Oc2ccc(-n3ccnc3)cc2)c1	5
O=c1cc2n(c(=O)[nH]1)CC(c1ccccc1)=NN2	12
C[C@H]1CCC[C@@H](NCCc2ccccc2)CCC/C=C/c2cc(O)cc(O)c2C(=O)O1	72
CCc1nc(NC(=O)C(=O)Nc2cc(C)on2)sc1C	6
Cc1ccccc1C(=O)Nc1nnc(Cc2nc3ccccc3s2)s1	-8
O=C1C2C3C=CC(C3=C3CCCCC3)C2C(=O)N1c1cccc(Cl)c1 (stereo not drawn)	15
NC(=O)[C@@H]1CN(C(=O)c2ccc(Br)cc2Oc2ccc(F)cc2)CCO1	1

SMILES	% Inhibition [%]
CCCNC(=O)CS(=O)(=O)Cc1cccc(Br)c1C	-14
CCc1nccn1CC(=O)Nc1cc(C)nn1C	-14
Cc1cccc(N2C(=O)c3cc(Br)ccc3N[C@@H]2c2ccc(N(C)C)cc2)c1	-1
COc1ccc(CN2CCc3nn(CC4CC4)c(=O)n3CC2)cc1	-6
CCN1c2cc(C)ccc2-n2cccc2C12CCNCC2	-7
CCOc1ccc(NC(=O)c2cn3nc(-c4ccc(OCC)cc4)cc3nc2C2CCN(C(=O)OC(C)(C)C)CC2)cc1	16
CC(C)[C@H](NC(=O)c1ccc(Cl)cc1Cl)C(=O)O	-5
CCN1c2cc(C(=O)NCc3ccccc3C)ccc2C(=O)N2CCCC[C@H]21	1
CCC(=O)N1CCC[C@H](OCc2ccccc2Cl)C1	-3
CC(C)(C)CC(=O)Nc1ccc2c(c1)C(N1CCCCC1)=Nc1ccccc1O2	-4
Cc1cc(CN2C(=O)NC3(CCCCC3)C2=O)no1	3
CCc1c2c(=O)n(-c3ccc(F)cc3)[nH]c2cc(=O)n1Cc1ccccc1	8
CCOc1cc(CNc2cccc3ccccc23)cc(Br)c1OCC(=O)NC(C)(C)C	91
Cc1ccc(NC(=O)c2cn(CC3(O)CCN(Cc4ccccc4)CC3)nn2)c(C)c1	12
CNC(=O)c1cnc(C=Cc2cnc(-c3cccnc3)s2)s1	8
CCCCC(C(=O)Nc1cc(C)on1)N1CCN(C)CC1C (stereo not drawn)	-4
c1ccc(-c2ccccc2NCn2nnc3ccccc32)cc1	-9
NS(=O)(=O)Cc1ccc(CNc2ccc3ccc(F)cc3n2)cc1	6
Cc1nn(C)c(C)c1S(=O)(=O)N1CC[C@]2(CCN(c3cccnc3)C2)C1	12
Cc1noc(C)c1CNc1cc(S(=O)(=O)N2CCCCC2)ccc1Oc1ccccc1	14
CC(C)(C)OC(=O)N1CC(NC(=O)C2CC2c2ccccc2C(F)(F)F)C1 (stereo not drawn)	-16
CCOc1c(CNC(C)(C)CC(C)(C)C)cccc1OC	5
Fc1ccccc1N1CCN(C2CCN(Cc3c[nH]c4ccccc34)CC2)CC1	33

SMILES	% Inhibition [%]
O=C(NCC(F)(F)F)Nc1ccc(CO)cc1	3
CCC(=O)N1CCC(Nc2cccc(-c3nc(C4CC4)n[nH]3)c2)CC1	-24
COc1ccc(CCNC(=O)CCCC(=O)NCc2ccccc2)cc1OC	-14
Cc1nc(CCNC(=O)Cc2nn(C)c3ccccc23)c(C)o1	12
CCc1ccccc1Nc1nc(C)c(C(=O)NCc2cccnc2)s1	-22
Cc1cc(OCc2ccc(C(=O)Nc3ncn(Cc4c(F)cccc4Cl)n3)o2)ccc1Cl	0
CN(C)C(=O)NCC1(NC(=O)N(C)C)CCC1	5
O=C(NCc1ccco1)c1nc(-c2ccncc2)cs1	10
COc1ccc(C2=NN(C(C#N)c3cccc(OC)c3O)C(c3ccccc3)C2)cc1 (stereo not drawn)	3
C[C@@H](C(=O)N1CCN(C/C=C/c2ccccc2)CC1)N1Cc2ccccc2C1=O	0
Cn1nccc1/C=C1\CC2C3CCc4cc(O)ccc4C3CCC2(C)C1O (stereo not drawn)	47
CN(CC(C)(CO)CO)C(=O)c1coc2ccccc12	4
CC1CN(S(=O)(=O)CC2CCOC2)c2ccc(F)cc2O1 (stereo not drawn)	3
O=C(Nc1ccccc1OC[C@H]1CCCCO1)N1CCOCC1	9
O=C(NCCCN1CCCC1=O)c1cn2ccnc(-c3ccccc3)c2n1	0
C[C@@H](NC(=O)c1ccccc1F)c1ccccc1	14
O=C1CCC[C@H](C(=O)Nc2cnn(CC(F)(F)F)c2)N1	6
Cc1cc(Cl)ccc1S(=O)(=O)N1CCc2nnc([C@H]3CCN(C(C)C)C3)n2CC1	10
O=C(NCc1cccnc1)c1cnn2c3c(cnc12)CCCC3	-3
COc1ccc(N(Cc2ccc(F)cc2)S(=O)(=O)c2ccc3nncn3c2)cc1	-9
Cc1cc2nc(C)c(=O)n(Cc3ccc(C(=O)NCCCN4CCCC[C@@H]4C)cc3)c2cc1C	14
CCOCCC1(CN=C(N)N2CCCCC2)CCCC1	5
